In PubChem BioAssay AID485344 (National Center for Advancing Translational Sciences (NCATS), 2010):
About 6,900 (2%) of roughly 340,000 compounds were called active. No stated cut-off is given here; in the data, active means inhibition above about 30%; inactive means below that, where a call was filed. This is a selection; strong and weak results do not stand in their true shares. Where no call is shown, the source filed none. Where a structure was tested more than once in an assay, its records may differ in their call.
Further: 0% is about no effect.

These compounds were tested against D(2) dopamine receptor (Homo sapiens) (UniProt P14416) (assay: HTS Assay for Allosteric Antagonists of the Human D2 Dopamine Receptor: Primary Screen for Antagonists). Details: HEK293 TREx D2 cells, calcium flux, dopamine EC80; at 10 µM; stronger effect = higher value.
UniProt P14416, sequence (P14416 whole entry, looked up): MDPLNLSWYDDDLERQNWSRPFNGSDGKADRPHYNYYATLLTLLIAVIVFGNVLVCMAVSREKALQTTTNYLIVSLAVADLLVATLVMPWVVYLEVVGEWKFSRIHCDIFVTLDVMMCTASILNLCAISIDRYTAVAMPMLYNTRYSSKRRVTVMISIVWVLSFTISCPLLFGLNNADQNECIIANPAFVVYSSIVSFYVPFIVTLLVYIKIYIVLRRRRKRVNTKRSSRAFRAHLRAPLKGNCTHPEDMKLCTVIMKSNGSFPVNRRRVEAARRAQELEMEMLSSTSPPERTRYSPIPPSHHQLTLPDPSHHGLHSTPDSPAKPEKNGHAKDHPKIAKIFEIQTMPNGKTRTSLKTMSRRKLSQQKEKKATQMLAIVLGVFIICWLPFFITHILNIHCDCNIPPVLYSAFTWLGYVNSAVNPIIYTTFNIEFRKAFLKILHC
Procedure, shortened: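 Tetracycline-induced HEK293 T-REx cells expressing D2 force-coupled to calcium signalling were dye-loaded, exposed to compound for 180 s, then challenged with an EC80 of dopamine; calcium flux was followed kinetically for a further 180 s.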
For CCOc1ccc(CCn2c(-c3ccco3)nc3ccccc3c2=O)cc1OCC, the inhibition was active: 35.8%. With COc1ccc(-c2cc(=O)c3cc(OCC(=O)OC(C)C)ccc3o2)cc1 the inhibition was -9.91%. COc1cc(CCNC(=O)c2ccc3c(c2)c(C)c(C)n3Cc2cccc(C)c2)cc(OC)c1OC was tested, and the inhibition was 2.19%. Work on COCCCn1c(=N)c(C(=O)NCc2cccnc2)cc2c(=O)n3cc(C)ccc3nc21 yielded an inhibition of -15.1%. CN(C)S(=O)(=O)c1cccc(C(=O)Nc2ccc(Cl)cn2)c1 was tested, and the inhibition was active: 36.9%. For Cc1cc(C)c2c(-n3cccc3)c(C(=O)NCc3cccc(F)c3)sc2n1, the inhibition was 5.49%. CCOc1ccc(NC(=O)c2nc3nc(C)cc(C(F)F)n3n2)cc1 showed an inhibition of -7.72%. CN1C(=O)/C(=C\c2ccc(N(C)C)cc2)OC1=S was tested, and the inhibition was active: 47.5%. CCc1nnc(SCc2ccc(OC)cc2)c2cc3sc(C)cc3n12 showed an inhibition of 6.68%. O=C(CCn1ccc2cc(S(=O)(=O)N3CCCC3)ccc21)NCc1cccc(Cl)c1 was tested, and the inhibition was 5.26%. CCOC(=O)C1CCN(S(=O)(=O)c2cnc[nH]2)CC1 was tested, and the inhibition was active: 34.9%. Cc1cc(C(=O)NCc2cccc(Br)c2)c2c(C)nn(-c3ccccc3)c2n1 gave an inhibition of 16.8%. Cc1ccc(NC(=O)c2ccc(CNS(=O)(=O)c3ccc4c(c3)C(C)(C)C(=O)N4C)cc2)cc1C gave an inhibition of -8.08%. In the case of CC(=O)N1c2ccc(S(=O)(=O)NCC3CCC(C(=O)Nc4ccc(C)c(C)c4)CC3)cc2CC1C (configuration not stated), the inhibition is reported as -5.76%. In the case of O=C(NCc1ccccc1Cl)c1ccc(Cn2c(SCc3ccccc3)nc3cccnc32)cc1, the inhibition is reported as -0.401%. CCc1ccccc1NC(=O)c1ccc2c(SCC(=O)O)c3c(nc2c1)CCC3 was tested, and the inhibition was 3.72%. In the case of Cc1ccccc1Cn1c2ccccc2c2cnn(CC(=O)NCC(C)c3ccccc3)c(=O)c21 (configuration not stated), the inhibition is reported as -1.7%. In the case of CCOc1ccc(C2c3c(oc4ccc(C)cc4c3=O)C(=O)N2CCCN(C)C)cc1 (configuration not stated), the inhibition is reported as 14.9%. For CSc1ccc(CCNC(=O)C(C)n2nc(C)c3sc4ccccc4c3c2=O)cc1 (configuration not stated), the inhibition was 7.52%. For CCOC(=O)C1CCN(C(=O)c2ccc(NC(=O)c3nsc4ccccc34)cc2)CC1, the inhibition was -14.6%. In the case of COc1cc(OC)c(NC(=O)c2nn(-c3ccc(C)cc3)c(=O)c3c2c2ccccc2n3C)cc1Cl, the inhibition is reported as -4.57%. O=C(Nc1cccc(C(=O)N2CCN(c3cccc(Cl)c3)CC2)c1)c1nsc2ccccc12 was tested, and the inhibition was -13.8%. CC(=O)c1nnn(-c2ccc(C)cc2Cl)c1C gave an inhibition of -1.49%. CC(C)Oc1cccc(C2CC(=O)Nc3cc4c(cc32)OCO4)c1 (configuration not stated) was tested, and the inhibition was -4.93%. With O=C(CCn1cnnn1)Nc1cc(C(F)(F)F)cc(C(F)(F)F)c1 the inhibition was -0.895%. Work on CC(=O)c1ccc(Nc2ccc3cc(S(=O)(=O)N4CCCC4)ccc3n2)cc1 yielded an inhibition of -7.16%. COc1cc(NC(=O)CSc2nccn2C)cc(OC)c1OC was tested, and the inhibition was -9.89%. In the case of COc1ccc2c(c1)c1c(c(=O)n(-c3ccc(OC)c(OC)c3)c(=O)n1Cc1ccccc1F)n2C, the inhibition is reported as -8.99%. CC(C)CCn1nnc2sc(-c3ccccc3)cc2c1=O gave an inhibition of 4.73%. With CCCCSCCCNC(=O)c1cn(C)c2ccc(S(=O)(=O)N3CCCCCC3)cc2c1=O the inhibition was -16.7%. O=C(NCCS(=O)(=O)N1CCN(c2ccc(F)cc2)CC1)c1cccc(C(F)(F)F)c1 gave an inhibition of -7.87%. Work on Cc1ccc(Cl)cc1N1CCN(C(=O)CCCn2c(=O)[nH]c3ccc(Br)cc3c2=O)CC1 yielded an inhibition of -6.46%. CN(C)c1ccc(CNC(=O)c2ccc(NC(=O)N3CCCCc4ccccc43)cc2)cc1 was tested, and the inhibition was 1.79%. With N#CC1(c2ccccc2)CCC(NCCc2ccccc2)CC1 (configuration not stated) the inhibition was active: 45.6%. COc1ccc(-n2c(SCC(=O)Nc3cccc(C)c3C)nc3c([nH]c4ccccc43)c2=O)cc1 gave an inhibition of 11%. N#Cc1c(-n2ncnc2-c2cccc(Br)c2)sc2c1CCCCC2 showed an inhibition of 8.52%. Work on O=S(=O)(Nc1cc(F)ccc1F)c1ccc2[nH]c3c(c2c1)CCCCC3 yielded an inhibition of -9.62%. For Cc1ccc2oc(=O)c3cc(C(=O)N4CCN(c5ccccc5F)CC4)sc3c2c1, the inhibition was 0.133%. CC(C)(C)c1ccc(Oc2ccc(NC(=O)CCC(=O)OCC(=O)c3ccccc3)cc2)cc1 showed an inhibition of 6.48%. Work on Cc1ccc(NC(=O)c2c(NC(=O)Cc3ccccc3)sc3c2CCCC3)cc1 yielded an inhibition of -9.17%. CC(=O)c1cccc(NC(=O)Cn2c(=O)oc3cc(S(=O)(=O)N4CCCC4)ccc32)c1 gave an inhibition of 7%. CCOc1ccc(CCNC(=O)CN2C(=O)COc3ccc(S(=O)(=O)N4CCCCCC4)cc32)cc1 showed an inhibition of -10.7%. Work on CC(=O)Nc1ccc(NC(=O)CCSCCc2ccccn2)cc1 yielded an inhibition of 4.57%. CN(C)c1ccc(-c2nnc3n(Cc4ccccc4)c(=O)c4ccccc4n23)cc1 gave an inhibition of -3.42%. CCC1(C)Cc2nc3sc(C(=O)O)c(N)c3cc2CO1 (configuration not stated) was tested, and the inhibition was active: 36.7%. With c1ccc(CN(CC2=NCCN2)c2ccccc2)cc1 the inhibition was active: 40.8%. COc1cccc(C(=O)N(Cc2ccco2)c2ccccn2)c1 gave an inhibition of 0.173%. In the case of CCCN(CC1CC1)C(=O)COC(=O)c1oc2c(F)cccc2c1C, the inhibition is reported as active: 40.6%. For CC(=O)Nc1ccc(/C=N/N2C(=O)NC(C)(c3ccc(OC(F)F)cc3)C2=O)cc1 (configuration not stated), the inhibition was active: 46.7%. In the case of O=C(CNC(=O)c1ccccc1F)OCc1cc(=O)n2nc(C3CCCCC3)sc2n1, the inhibition is reported as 6.84%. Work on O=C(Nc1cc2ccc(O)cc2oc1=O)c1ccccc1 yielded an inhibition of 2.4%. For O=S(=O)(c1ccc(-c2csc(=Nc3ccc(OC(F)(F)Cl)cc3)n2CCCO)cc1)N1CCCC1, the inhibition was -17.7%. Work on CC(C)CCNC(=O)c1ccc2c(c1)N(Cc1ccccc1F)C(=O)c1ccccc1S2(=O)=O yielded an inhibition of -2.82%. Work on Fc1cccc(Cl)c1CNCCSc1nnnn1-c1ccccc1 yielded an inhibition of 3.15%. In the case of Cc1cccc(C)c1NC(=O)Cn1c(SCC(=O)NCc2ccccc2)nc2ccccc21, the inhibition is reported as -14.4%. For Cc1ccc(NC(=O)c2ncoc2-c2ccco2)cc1Cl, the inhibition was -3.1%. In the case of Cc1ccc(-c2nn(-c3ccccc3)cc2CNCc2ccccc2)cc1, the inhibition is reported as active: 51%. In the case of CCOC(=O)N1CCN(c2c(NCCc3ccc(OC)c(OC)c3)c(=O)c2=O)CC1, the inhibition is reported as active: 36.2%. Work on COc1ccc2cc(CNc3ccc(OC)c(OC)c3)c(=O)n(CC(=O)Nc3ccccc3F)c2c1 yielded an inhibition of 0.428%. With CCOC(=O)N1CCN(C(=O)CN2C(=O)COc3ccc(C)cc32)CC1 the inhibition was active: 37.5%. CCOC(=O)c1[nH]c(C)c(CCC(=O)Nc2cccc(SC)c2)c1C showed an inhibition of -10.9%. In the case of CCOC(=O)CNC(=O)c1cc(OC)cc(OC)c1, the inhibition is reported as active: 38.6%. Compound CCOc1ccc(NC(=O)C2CCN(S(=O)(=O)c3c(C)noc3/C=C/c3cccs3)CC2)cc1 has an inhibition of 17.7%. For CCOc1ccc(-c2nnc(SCC(=O)c3ccccc3)n2-c2ccccc2)cc1, the inhibition was 8.44%. For COC(=O)CNC(=O)N1CCN(S(=O)(=O)c2ccc3c(ccn3C)c2)CC1, the inhibition was 19%. COc1ccc(C(=O)Nc2ccc3oc(-c4ccc5ccccc5c4)nc3c2)cc1Br gave an inhibition of 5.8%. Cn1cccc1-c1cc2n(n1)CCC(=O)N2CCCC(=O)NCc1ccc(F)cc1 was tested, and the inhibition was -1.93%. With CCc1cc2c(cc3c(=O)n(CC(=O)NCc4cc(Br)ccc4OC)ncn32)s1 the inhibition was 3.9%. In the case of CCN(CC)S(=O)(=O)c1ccc2oc(C(=O)Nc3cc(C)ccc3OC)c(C)c2c1, the inhibition is reported as 12.6%. In the case of COC(=O)CC1=NN(c2ccccc2)C(=O)/C1=C\c1ccc(OC)cc1, the inhibition is reported as active: 56%. For CN1C(=O)Cc2cc(S(=O)(=O)CCC(=O)Nc3ccc(OC(F)(F)F)cc3)ccc21, the inhibition was 9.76%. For Oc1ccc(C(=S)N2CCCCCC2)cc1, the inhibition was active: 37%. Compound Cc1ccc(NC(=O)CN2C(=O)c3ccccc3Sc3ccc(C(=O)N4CCOCC4)cc32)c(Cl)c1 has an inhibition of 17.7%. CCN(C(=O)C1CCCN(c2ncnc3c2nc2n3CCCCC2)C1)c1cccc(C)c1 (configuration not stated) showed an inhibition of -6.79%. CCOc1ccc(OC(=O)c2c(-c3ccccc3Cl)noc2C)cc1 was tested, and the inhibition was 3.67%. In the case of CCn1cc(C(=O)NCCc2ccc(C)cc2)c(=O)c2cc(S(=O)(=O)N3CCc4ccccc4C3)ccc21, the inhibition is reported as -1.09%. Work on Cc1ccc(-c2noc(-c3cc(-c4ccc(F)cc4)n[nH]3)n2)cc1 yielded an inhibition of 4.46%. Compound O=C(Nc1c(-c2ccccc2)nc2ccccn12)c1ccccc1F has an inhibition of 6.31%. For Cc1cc(C)cc(NC(=O)CNS(=O)(=O)c2ccc3nc(C)sc3c2)c1, the inhibition was -7.24%. For COC(=O)c1ccc(NC(C)C(=O)OC)c([N+](=O)[O-])c1 (configuration not stated), the inhibition was active: 42.8%. CC(=O)c1ccc(N2CCN(C(=O)CCn3cnc4onc(-c5ccc(F)cc5)c4c3=O)CC2)cc1 showed an inhibition of -9.5%. O=C1CC(c2ccc(F)cc2)c2c(c3ccccc3[nH]c2=O)O1 (configuration not stated) showed an inhibition of -26.2%. CCOc1ccccc1NC(=O)Nc1cc2c(cc1N1CCCCC1)n(CC)c(=O)n2CC showed an inhibition of 3.24%. CCOC(=O)c1ccc(NC(=O)CSc2nccn2-c2cc(C)cc(C)c2)cc1 gave an inhibition of -0.372%. Compound CCOc1ccccc1CNCc1c(C(=O)O)n(Cc2ccc(F)cc2)c2cc(C)ccc12 has an inhibition of -11.3%. Work on Cc1nc2nc(SCC(=O)NCCc3ccc(Cl)cc3)nn2c(C)c1Cc1ccccc1Cl yielded an inhibition of 4.42%. Compound Cc1ccccc1C1=CCN(c2ncc(NC(=O)c3ccc(Cl)cc3)cc2C(=O)O)CC1 has an inhibition of -5.49%. Cc1nc2c(-c3ccccc3)c(C)nn2c(C)c1CCC(=O)Nc1ccccc1F showed an inhibition of -17.7%. In the case of Cc1ccc(NC(=O)CSc2nc3ccc(NC(=O)COc4ccc(C)cc4)cc3s2)cc1, the inhibition is reported as -9.44%. COc1ccccc1N1CCN(CCCC(=O)c2ccc(F)cc2)CC1 was tested, and the inhibition was active: 69.6%. Work on COc1ccccc1N1CCN(C(=O)CCn2nc(C)c(S(=O)(=O)N3CCCC3)c2C)CC1 yielded an inhibition of -6.42%. In the case of Cc1ccc(SCc2nc(-c3ccc(C(=O)Nc4cc(C)ccc4C)cc3)oc2C)cc1, the inhibition is reported as 4.81%. O=C(Nc1nnc(C2CC(=O)N(c3ccc(Cl)cc3)C2)s1)c1ccco1 (configuration not stated) was tested, and the inhibition was 13.8%. In the case of O=C(Nc1ccc2[nH]c(=O)c(=O)[nH]c2c1)c1cccc(F)c1, the inhibition is reported as -12%. In the case of COC(=O)c1sc2cccc(F)c2c1S(=O)(=O)Nc1ccc(C)cc1Cl, the inhibition is reported as 4.34%. Compound Cc1c(/C=C(\C#N)C(=O)Nc2cccc(Cl)c2)c2ccccc2n1Cc1ccccc1 has an inhibition of 4.05%. Compound Cc1ccc(NS(=O)(=O)c2ccc3c(c2)[C@H]2C=CC[C@H]2[C@@H](c2ccc(F)cc2)N3)cc1C has an inhibition of -13.1%.
